Read counts are not given, so values of variants with three or more changes are uncertain.
B1: LINE1-mini (parent)
chain: GGCAGAGCUCAACACAGCGUGGCAAAGUGGCUGUGGCUAGACUGCC

Variants of: B1
Assay: self-cleavage, relative activity (ratio to wild type); higher = more cleavage; in vitro, sequencing; the parent is a self-cleaving ribozyme

Variant	self-cleavage
A6U C10U A25C G27U G29A C37G G44U	0.01
A6U G7C C37A C46A	0.08
A6U C8A A14G G30U	0.02
A6U U9A C10U C23U A24U A25U	0.19
A6U C8U U28A G35A G40U C42A C45G C46U	0.11
G7A A25U C42U	0.24
A6G G30C U43C	0
A6U C15U C23U A24U G35A	0.02
A6U G21A G27C G33U G36U	0.06
G7A C8A A16C U28A G30C G33C G35C	0.4
A6G G7A C13A A26G G27U	0.01
A6U A12U C37G U38G A41C U43G	0
A6U C15U A25G G30U	0.06
A6U G40U C42A U43A	0.45
A6G C23U G36A C46A	1.39
A6G G30C U32A G35U G36A A39G	0.01
A6G G27A C37U	0.01
A6G C10U G22A	0.06
A6G C10A U32C C42G C45A	0.01
A6U G33U G40U	0.12
A6U G17U G40A A41U	0.19
A6G C10A A24C U38C C46A	0.03
A6G G19A G27U C42G	0.03
A6G G27U G44U C45U	0.22

Variant	self-cleavage
G7A A11U A25C G36A A41C	0.03
A6G G22C A41U	0
A6U U9A G21U G33U	0.09
A6U G22A U28A G35A C42A	0.16
A6U C13A C42U	0.1
A6G G22A G33U	0.08
A6G C10G G22C U38G A39U G44U	0.01
A6G C18G A26U G29C	0.05
A6U G7A C31U	0.26
A6U C23A U38G A39C	0.04
A6U C18U G21C C45A	0.34
A6U U28G C31U	0.25
A6G U9A C15G G35A	0.18
A6G G17U U43A	0.03
A6U U20G A26U C31U G35C	0.09
G7A C8A G17C G22U	1.88
G7A A26C G29U C45A C46U	0.19
G7A A16G C46G	0.39
A6U A12U G30A C31U C45U	0.01
A6G G21A A39G C42U	0.03
A6G C8G U9G C10A G35C G36A	0.01
A6U C10A G19U C31U	0.04
A6G C10U C18G A24U U32G	0.02
A6U C10U U32G	0.12

Variant	self-cleavage
A6U C10U G19U G22U C23G U34A	0.07
A6U U9G A24U A26C	0.15
A6U G40U C45U	0.16
A6U G7U A12C	0.05
G7A A14C U32A	0.01
A6G G19U A41U	0.05
A6U G21A A41U	0.11
A6U C8U U28A A39U U43A	0.11
G7A C8A G30A C37U	0.21
A6U U20C U38G A39C	0.01
G7A C8G A16U A25U U32C	0.01
A6G G19U U34C	0.08
A6U C8G C15U U38A	0.08
A6U C8U C10U U38C	0.05
A6G U28A C37U A41C C46A	0.04
A6G C10A U43A C45G	0.02
A6U G21A G29A C42A	0.17
A6G G7C G30U C31U C42U	0
A6G C10U G40U	0.03
A6U G35U C37U U38G	0.03
G7A A11G G22U G30U G33A C42G	0
A6G G35A A39G	0.08
G7A A14C A26G U34C G44C	0.08
A6G G17U G27A U32C	0.08

Variant	self-cleavage
G7A A14G C15A	0.06
A6G G22A G33A G44A	0.01
A6G C13G A14C A25G U28C G35C	0
A6U G7U C13A A24G	0.17
G7A A16U G21C	0.12
A6U G19A G27C U32G A39U	0.09
A6U C15G G33A G35A	0.15
A6U G17C G29C G36U U43C	0.13
A6G C10G A12C C23U U38G	0.01
A6U C23U G36U U43A	0.14
A6U A16G C37U A39U	0.2
G7A C8A A11U C15A G21U G35A G40A C42A	0.02
A6G U20G C37G	0.01
G7A A12U C13A U28C A39U	0.13
A6U C10A G21U A24U	0.04
A6G C18G C23U G40U	0.02
A6U A12C G29U U34C	0.02
A6U C10A C18G U34A	0.02
A6U C8A A26U	0.26
A6G C10A G30A G33U A41U	0.03
A6U G21A A24C G30A G33A G44C	0.03
A6G G35U G36A	0.12
A6G G7U G35A U38C A41C G44U	0
A6G G7C G29A	0.02

Variant	self-cleavage
A6U C13G C37A	0.37
A6U C10A G33U U38A	0.02
G7A A25C G27C	0.1
A6U A14G A16C A25C	0.11
A6G U9C C15U U20C A25U A41U C45A	0.04
A6U C37G C46U	0.01
A6G C8G G40C	0.06
A6U U20A G21U	0.4
A6U G17A C42U	0.01
A6U G17C C23A G30A U38A	0.42
A6G U38G C45A	0
A6G C10A G44U	0.06
A6U A11U G36A	0.01
A6U C8G C13U	0.17
A6G C23A A25G	0.06
A6U G27A C37G	0.03
A6G U28C G29C G44A	0.01
A6U A24C U43A	0.02
A6U G7C C23G A26G	0.45
A6U C15A G27U G36U C42G	0.04
A6U C18U A24U U28G	0.07
A6G C10A C23A A24G G40A	0.01
A6G G7C C8G	0.13
A6U U9A G22U	0.28

Variant	self-cleavage
A6U C18U G21A U38A A39U	1.35
A6U C13A G19A G35U G36A	0.4
A6U G17C U28G	0.51
A6U C8A C13A G40U C46U	0.12
A6U G22U U28C U38G	0.01
G7A A16C A25G	0.02
A6G G7U C15U	0.06
G7A A24U A25G A26C G33U G35C	0.14
A6U C15G A16U G30C C42U C46G	0.92
G7A A14G U32G G40U	0.09
A6U C23A U32A G40C C46U	0.04
G7A A14G G17A G21U	0.03
A6U G7A A11C C13G C37U	0.02
G7A A14C A16C U34G	0.02
A6G G7U G40A	0.02
A6U U9C G27C G40U	0.01
A6U G7C C10A A14U A24G A39C C46A	0.01
A6G C37A U38G	0.01
A6U U9A A26C	0.09
A6G G33A G35C C45U	0.03
A6G G7U C18A G36A	0.07
A6G C8U A14U A25C	0.29
A6U C8G G19A C45U	0.78
A6U U9C A11G C18U A39G	0.03

Variant	self-cleavage
A6G C13U C23U	0.05
A6G G7C C8A G19C U20G G36U	0.33
A6G U28A G35U A39U	0.04
G7A A11C G36A A39C	0.02
A6G G27A U28G C42A C46G	0.07
A6G C13U A14G G19A G21C A25U A26C G33A	0.03
G7A A11U A12C A39G	0.03
A6G G22U C23A G35U G40C	0
A6U G19A U20A G27C A39U	0.06
G7A A16C G30A U43C	0.05
A6U G17A G44U	0.02
A6U A14U G19U	0.04
A6U C8G A39U G44U	0.01
A6U G7U A11G G30A U32A	0
A6G C8U A26U G27A C46U	0.21
A6U G17U C18U A25G G36U A41G	0.01
A6U C8G U20A A26C	0.03
A6G G33C A41C	0.05
A6G C8U G19C G21A A39G C45G	0.03
A6U C15U U20C	0.04
A6G G29U A41U	0.11
G7A A11C C13U C18G G33A G35U C42G G44U	0.01
A6G U9G A25U G36A C37U	0.1
